# The other results are listed elsewhere or left out.
# B1: Threefoil (Haloarcula marismortui) (protein)
# chain: GSSHHHHHHHHHHSSGLVPRGSHMGDGYYKLVARHSGKALDVENASTSDGANVIQYSYSGGDNQQWRLVDLGDGYYKLVARHSGKALDVENASTSDGANVIQYSYSGGDNQQWRLVDLGDGYYKLVARHSGKALDVENASTSDGANVIQYSYSGGDNQQWRLVDL
# What was measured:
# Test in all cases: glycan array binding signal (z-score within array); higher = stronger binding
# Conditions in all cases: glycan notation: IUPAC condensed, linker removed
# Gal(b1-2)Gal = biological target: Gal(b1-2)Gal
# Summary of the method: (§1)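 Glycan array data came from 3228 arrays in the Consortium for Functional Glycomics database, and only arrays with an available protein sequence were kept. Glycan names were put into IUPAC-condensed notation, and columns mapping to the same glycan were averaged. The binding signal is a within-array Z-score, averaged across arrays of one protein sequence run at different concentrations or buffers and across linkers. A negative Z-score can be read as non-binding.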
# Gal(b1-3)Gal = biological target: Gal(b1-3)Gal
# Summary of the method: as §1
# Gal(b1-3)Gal(b1-4)GlcNAc = biological target: Gal(b1-3)Gal(b1-4)GlcNAc
# Summary of the method: as §1
# Gal(b1-3)GalNAc = biological target: Gal(b1-3)GalNAc
# Summary of the method: as §1
# [1] = biological target: Gal(b1-3)GalNAc(a1-3)[Fuc(a1-2)]Gal(b1-4)Glc
# Summary of the method: as §1
# [2] = biological target: Gal(b1-3)GalNAc(a1-3)[Fuc(a1-2)]Gal(b1-4)GlcNAc
# Summary of the method: as §1
# Gal(b1-3)GalNAc(b1-3)Gal = biological target: Gal(b1-3)GalNAc(b1-3)Gal
# Summary of the method: as §1
# [3] = biological target: Gal(b1-3)GalNAc(b1-3)Gal(a1-4)Gal(b1-4)Glc
# Summary of the method: as §1
# [4] = biological target: Gal(b1-3)GalNAc(b1-4)Gal(b1-4)Glc
# Summary of the method: as §1
# [5] = biological target: Gal(b1-3)GalNAc(b1-4)[Neu5Ac(a2-3)]Gal(b1-4)Glc
# Summary of the method: as §1
# Gal(b1-3)GlcNAc = biological target: Gal(b1-3)GlcNAc
# Summary of the method: as §1
# [6] = biological target: Gal(b1-3)GlcNAc(a1-3)Gal(b1-4)GlcNAc
# Summary of the method: as §1
# [7] = biological target: Gal(b1-3)GlcNAc(a1-6)Gal(b1-4)GlcNAc
# Summary of the method: as §1
# Gal(b1-3)GlcNAc(b1-2)Man = biological target: Gal(b1-3)GlcNAc(b1-2)Man
# Summary of the method: as §1
# [8] = biological target: Gal(b1-3)GlcNAc(b1-2)Man(a1-3)[Gal(b1-3)GlcNAc(b1-2)Man(a1-6)]Man(b1-4)GlcNAc(b1-4)GlcNAc
# Summary of the method: as §1
# [9] = biological target: Gal(b1-3)GlcNAc(b1-2)Man(a1-3)[Gal(b1-3)GlcNAc(b1-2)Man(a1-6)]Man(b1-4)GlcNAc(b1-4)[Fuc(a1-6)]GlcNAc
# Summary of the method: as §1
# [10] = biological target: Gal(b1-3)GlcNAc(b1-2)Man(a1-3)[GlcNAc(b1-4)][Gal(b1-3)GlcNAc(b1-2)Man(a1-6)]Man(b1-4)GlcNAc(b1-4)GlcNAc
# Summary of the method: as §1
# [11] = biological target: Gal(b1-3)GlcNAc(b1-2)[Gal(b1-3)GlcNAc(b1-6)]Man(a1-6)[Gal(b1-3)GlcNAc(b1-2)Man(a1-3)]Man(b1-4)GlcNAc(b1-4)GlcNAc
# Summary of the method: as §1
# [12] = biological target: Gal(b1-3)GlcNAc(b1-3)Gal(b1-3)GlcNAc
# Summary of the method: as §1
# [13] = biological target: Gal(b1-3)GlcNAc(b1-3)Gal(b1-4)Glc
# Summary of the method: as §1
# [14] = biological target: Gal(b1-3)GlcNAc(b1-3)Gal(b1-4)GlcNAc
# Summary of the method: as §1
# [15] = biological target: Gal(b1-3)GlcNAc(b1-3)Gal(b1-4)GlcNAc(b1-2)Man(a1-3)[Gal(b1-3)GlcNAc(b1-3)Gal(b1-4)GlcNAc(b1-2)Man(a1-6)]Man(b1-4)GlcNAc(b1-4)GlcNAc
# Summary of the method: as §1
# [16] = biological target: Gal(b1-3)GlcNAc(b1-3)Gal(b1-4)GlcNAc(b1-2)[Gal(b1-3)GlcNAc(b1-3)Gal(b1-4)GlcNAc(b1-6)]Man(a1-6)[Gal(b1-3)GlcNAc(b1-3)Gal(b1-4)GlcNAc(b1-2)Man(a1-3)]Man(b1-4)GlcNAc(b1-4)[Fuc(a1-6)]GlcNAc
# Summary of the method: as §1
# [17] = biological target: Gal(b1-3)GlcNAc(b1-3)Gal(b1-4)GlcNAc(b1-3)Gal(b1-4)GlcNAc(b1-2)[Gal(b1-3)GlcNAc(b1-3)Gal(b1-4)GlcNAc(b1-3)Gal(b1-4)GlcNAc(b1-6)]Man(a1-6)[Gal(b1-3)GlcNAc(b1-3)Gal(b1-4)GlcNAc(b1-3)Gal(b1-4)GlcNAc(b1-2)Man(a1-3)]Man(b1-4)GlcNAc(b1-4)[Fuc(a1-6)]GlcNAc
# Summary of the method: as §1
# [18] = biological target: Gal(b1-3)GlcNAc(b1-3)Gal(b1-4)GlcNAc(b1-6)[Gal(b1-3)GlcNAc(b1-3)]Gal(b1-4)Glc
# Summary of the method: as §1
# [19] = biological target: Gal(b1-3)GlcNAc(b1-3)Gal(b1-4)[Fuc(a1-3)]GlcNAc
# Summary of the method: as §1
# [20] = biological target: Gal(b1-3)GlcNAc(b1-3)Gal(b1-4)[Fuc(a1-3)]GlcNAc(b1-6)[Gal(b1-3)GlcNAc(b1-3)]Gal(b1-4)Glc
# Summary of the method: as §1
# [21] = biological target: Gal(b1-3)GlcNAc(b1-3)GalNAc
# Summary of the method: as §1
# [22] = biological target: Gal(b1-3)GlcNAc(b1-6)Gal(b1-4)GlcNAc
# Summary of the method: as §1
# [23] = biological target: Gal(b1-3)GlcNAc(b1-6)GalNAc
# Summary of the method: as §1
# [24] = biological target: Gal(b1-3)GlcNAc(b1-6)[Gal(b1-3)]GalNAc
# Summary of the method: as §1
# Gal(b1-3)GlcNAc6S = biological target: Gal(b1-3)GlcNAc6S
# Summary of the method: as §1
# [25] = biological target: Gal(b1-3)[Fuc(a1-4)]GlcNAc
# Summary of the method: as §1
# [26] = biological target: Gal(b1-3)[Fuc(a1-4)]GlcNAc(b1-2)Man
# Summary of the method: as §1
# [27] = biological target: Gal(b1-3)[Fuc(a1-4)]GlcNAc(b1-2)Man(a1-3)[Gal(b1-3)[Fuc(a1-4)]GlcNAc(b1-2)Man(a1-6)]Man(b1-4)GlcNAc(b1-4)[Fuc(a1-6)]GlcNAc
# Summary of the method: as §1
# [28] = biological target: Gal(b1-3)[Fuc(a1-4)]GlcNAc(b1-3)Gal(b1-3)[Fuc(a1-4)]GlcNAc
# Summary of the method: as §1
# [29] = biological target: Gal(b1-3)[Fuc(a1-4)]GlcNAc(b1-3)Gal(b1-4)GlcNAc
# Summary of the method: as §1
# [30] = biological target: Gal(b1-3)[Fuc(a1-4)]GlcNAc(b1-3)Gal(b1-4)[Fuc(a1-3)]GlcNAc
# Summary of the method: as §1
# [31] = biological target: Gal(b1-3)[Fuc(a1-4)]GlcNAc(b1-6)GalNAc
# Summary of the method: as §1
# [32] = biological target: Gal(b1-3)[GlcNAc(b1-6)]GalNAc
# Summary of the method: as §1
# [33] = biological target: Gal(b1-3)[Neu5Ac(a2-6)]GalNAc
# Summary of the method: as §1
# [34] = biological target: Gal(b1-3)[Neu5Ac(a2-6)]GlcNAc(b1-4)Gal(b1-4)Glc
# Summary of the method: as §1
# [35] = biological target: Gal(b1-3)[Neu5Ac(b2-6)]GalNAc
# Summary of the method: as §1
# Gal(b1-4)Gal = biological target: Gal(b1-4)Gal
# Summary of the method: as §1
# [36] = biological target: Gal(b1-4)GalNAc(a1-3)[Fuc(a1-2)]Gal(b1-4)GlcNAc
# Summary of the method: as §1
binder,measurement,setting,value
B1,glycan array binding signal (z-score),Gal(b1-2)Gal,-0.244
same,glycan array binding signal (z-score),Gal(b1-3)Gal,-0.141
same,glycan array binding signal (z-score),Gal(b1-3)Gal(b1-4)GlcNAc,-0.177
same,glycan array binding signal (z-score),Gal(b1-3)GalNAc,-0.154
same,glycan array binding signal (z-score),[1],-0.066
same,glycan array binding signal (z-score),[2],0.011
same,glycan array binding signal (z-score),Gal(b1-3)GalNAc(b1-3)Gal,-0.114
same,glycan array binding signal (z-score),[3],-0.162
same,glycan array binding signal (z-score),[4],-0.114
same,glycan array binding signal (z-score),[5],-0.035
same,glycan array binding signal (z-score),Gal(b1-3)GlcNAc,-0.187
same,glycan array binding signal (z-score),[6],-0.195
same,glycan array binding signal (z-score),[7],0.054
same,glycan array binding signal (z-score),Gal(b1-3)GlcNAc(b1-2)Man,-0.06
same,glycan array binding signal (z-score),[8],-0.064
same,glycan array binding signal (z-score),[9],-0.051
same,glycan array binding signal (z-score),[10],0.108
same,glycan array binding signal (z-score),[11],0.155
same,glycan array binding signal (z-score),[12],-0.266
same,glycan array binding signal (z-score),[13],-0.054
same,glycan array binding signal (z-score),[14],-0.043
same,glycan array binding signal (z-score),[15],0.005
same,glycan array binding signal (z-score),[16],0.362
same,glycan array binding signal (z-score),[17],0.426
same,glycan array binding signal (z-score),[18],0.046
same,glycan array binding signal (z-score),[19],0.045
same,glycan array binding signal (z-score),[20],-0.11
same,glycan array binding signal (z-score),[21],-0.237
same,glycan array binding signal (z-score),[22],0.14
same,glycan array binding signal (z-score),[23],-0.092
same,glycan array binding signal (z-score),[24],-0.215
same,glycan array binding signal (z-score),Gal(b1-3)GlcNAc6S,-0.174
same,glycan array binding signal (z-score),[25],-0.21
same,glycan array binding signal (z-score),[26],-0.299
same,glycan array binding signal (z-score),[27],-0.14
same,glycan array binding signal (z-score),[28],-0.297
same,glycan array binding signal (z-score),[29],0.307
same,glycan array binding signal (z-score),[30],-0.338
same,glycan array binding signal (z-score),[31],-0.181
same,glycan array binding signal (z-score),[32],-0.12
same,glycan array binding signal (z-score),[33],-0.243
same,glycan array binding signal (z-score),[34],-0.13
same,glycan array binding signal (z-score),[35],-0.229
same,glycan array binding signal (z-score),Gal(b1-4)Gal,-0.044
same,glycan array binding signal (z-score),[36],-0.048

# From the supplement of paper PMC8728848
